Laboratory results published in the supplement of paper PMC12423691.
This is one part of the list. Binding of human transcription factors and regulators to the viral nucleoprotein by AlphaScreen, crude cell-free proteins, amounts not normalised, one pass. Fold of the Venus control; higher = more signal. No active / inactive call. Single-pass screen; sequences are the whole Swiss-Prot entries looked up by name.

B1: GRHL2, Q6ISB3 (protein)
chain: MSQESDNNKRLVALVPMPSDPPFNTRRAYTSEDEAWKSYLENPLTAATKAMMSINGDEDSAAALGLLYDYYKVPRDKRLLSVSKASDSQEDQEKRNCLGTSEAQSNLSGGENRVQVLKTVPVNLSLNQDHLENSKREQYSISFPESSAIIPVSGITVVKAEDFTPVFMAPPVHYPRGDGEEQRVVIFEQTQYDVPSLATHSAYLKDDQRSTPDSTYSESFKDAATEKFRSASVGAEEYMYDQTSSGTFQYTLEATKSLRQKQGEGPMTYLNKGQFYAITLSETGDNKCFRHPISKVRSVVMVVFSEDKNRDEQLKYWKYWHSRQHTAKQRVLDIADYKESFNTIGNIEEIAYNAVSFTWDVNEEAKIFITVNCLSTDFSSQKGVKGLPLMIQIDTYSYNNRSNKPIHRAYCQIKVFCDKGAERKIRDEERKQNRKKGKGQASQTQCNSSSDGKLAAIPLQKKSDITYFKTMPDLHSQPVLFIPDVHFANLQRTGQVYYNTDDEREGGSVLVKRMFRPMEEEFGPVPSKQMKEEGTKRVLLYVRKETDDVFDALMLKSPTVKGLMEAISEKYGLPVEKIAKLYKKSKKGILVNMDDNIIEHYSNEDTFILNMESMVEGFKVTLMEI
B2: FEV, Q99581 (protein)
chain: MRQSGASQPLLINMYLPDPVGDGLFKDGKNPSWGPLSPAVQKGSGQIQLWQFLLELLADRANAGCIAWEGGHGEFKLTDPDEVARRWGERKSKPNMNYDKLSRALRYYYDKNIMSKVHGKRYAYRFDFQGLAQACQPPPAHAHAAAAAAAAAAAAQDGALYKLPAGLAPLPFPGLSKLNLMAASAGVAPAGFSYWPGPGPAATAAAATAALYPSPSLQPPPGPFGAVAAASHLGGHYH
B3: NRF1, Q16656 (protein)
chain: MEEHGVTQTEHMATIEAHAVAQQVQQVHVATYTEHSMLSADEDSPSSPEDTSYDDSDILNSTAADEVTAHLAAAGPVGMAAAAAVATGKKRKRPHVFESNPSIRKRQQTRLLRKLRATLDEYTTRVGQQAIVLCISPSKPNPVFKVFGAAPLENVVRKYKSMILEDLESALAEHAPAPQEVNSELPPLTIDGIPVSVDKMTQAQLRAFIPEMLKYSTGRGKPGWGKESCKPIWWPEDIPWANVRSDVRTEEQKQRVSWTQALRTIVKNCYKQHGREDLLYAFEDQQTQTQATATHSIAHLVPSQTVVQTFSNPDGTVSLIQVGTGATVATLADASELPTTVTVAQVNYSAVADGEVEQNWATLQGGEMTIQTTQASEATQAVASLAEAAVAASQEMQQGATVTMALNSEAAAHAVATLAEATLQGGGQIVLSGETAAAVGALTGVQDANGLVQIPVSMYQTVVTSLAQGNGPVQVAMAPVTTRISDSAVTMDGQAVEVVTLEQ
B4: ZNF137P, P52743 (protein)
chain: MNVARFLVEKHTLHVIIDFILSKVSNQQSNLAQHQRVYTGEKPYKCNEWGKALSGKSSLFYHQAIHGVGKLCKCNDCHKVFSNATTIANHWRIHNEDRSYKCNKCGKIFRHRSYLAVYQRTHTGEKPYKYHDCGKVFSQASSYAKHRRIHTGEKPHKCDDCGKVLTSRSHLIRHQRIHTGQKSYKCLKCGKVFSLWALHAEHQKIHF
B5: POU5F2, Q8N7G0 (protein)
chain: MAGHRPSNHFCPLPGSGGGGPRGPMPLRVDTLTWLSTQAAPGRVMVWPAVRPGICPGPDVWRIPLGPLPHEFRGWIAPCRPRLGASEAGDWLRRPSEGALPGPYIALRSIPKLPPPEDISGILKELQQLAKELRQKRLSLGYSQADVGIAVGALFGKVLSQTTICRFEAQQLSVANMWKLRPLLKKWLKEVEAENLLGLCKMEMILQQSGKWRRASRERRIGNSLEKFFQRCPKPTPQQISHIAGCLQLQKDVVRVWFYNRSKMGSRPTNDASPREIVGTAGPPCPGAPVCFHLGLGLPVDIPHYTRLYSAGVAHSSAPATTLGLLRF
B6: EIF2AK2, P19525 (protein)
chain: MAGDLSAGFFMEELNTYRQKQGVVLKYQELPNSGPPHDRRFTFQVIIDGREFPEGEGRSKKEAKNAAAKLAVEILNKEKKAVSPLLLTTTNSSEGLSMGNYIGLINRIAQKKRLTVNYEQCASGVHGPEGFHYKCKMGQKEYSIGTGSTKQEAKQLAAKLAYLQILSEETSVKSDYLSSGSFATTCESQSNSLVTSTLASESSSEGDFSADTSEINSNSDSLNSSSLLMNGLRNNQRKAKRSLAPRFDLPDMKETKYTVDKRFGMDFKEIELIGSGGFGQVFKAKHRIDGKTYVIKRVKYNNEKAEREVKALAKLDHVNIVHYNGCWDGFDYDPETSDDSLESSDYDPENSKNSSRSKTKCLFIQMEFCDKGTLEQWIEKRRGEKLDKVLALELFEQITKGVDYIHSKKLIHRDLKPSNIFLVDTKQVKIGDFGLVTSLKNDGKRTRSKGTLRYMSPEQISSQDYGKEVDLYALGLILAELLHVCDTAFETSKFFTDLRDGIISDIFDKKEKTLLQKLLSKKPEDRPNTSEILRTLTVWKKSPEKNERHTC
B7: TBPL2, Q6SJ96 (protein)
chain: MEQEETYLELYLDQCAAQDGLAPPRSPLFSPVVPYDMYILNASNPDTAFNSNPEVKETSGDFSSVDLSFLPDEVTQENKDQPVISKHETEENSESQSPQSRLPSPSEQDVGLGLNSSSLSNSHSQLHPGDTDSVQPSPEKPNSDSLSLASITPMTPMTPISECCGIVPQLQNIVSTVNLACKLDLKKIALHAKNAEYNPKRFAAVIMRIREPRTTALIFSSGKMVCTGAKSEEQSRLAARKYARVVQKLGFPARFLDFKIQNMVGSCDVRFPIRLEGLVLTHQQFSSYEPELFPGLIYRMVKPRIVLLIFVSGKVVLTGAKERSEIYEAFENIYPILKGFKKA
B8: GTF2A2, P52657 (protein)
chain: MAYQLYRNTTLGNSLQESLDELIQSQQITPQLALQVLLQFDKAINAALAQRVRNRVNFRGSLNTYRFCDNVWTFVLNDVEFREVTELIKVDKVKIVACDGKNTGSNTTE
B9: ZNF639, Q9UID6 (protein)
chain: MNEYPKKRKRKTLHPSRYSDSSGISRIADGFNGIFSDHCYSVCSMRQPDLKYFDNKDDDSDTETSNDLPKFADGIKARNRNQNYLVPSPVLRILDHTAFSTEKSADIVICDEECDSPESVNQQTQEESPIEVHTAEDVPIAVEVHAISEDYDIETENNSSESLQDQTDEEPPAKLCKILDKSQALNVTAQQKWPLLRANSSGLYKCELCEFNSKYFSDLKQHMILKHKRTDSNVCRVCKESFSTNMLLIEHAKLHEEDPYICKYCDYKTVIFENLSQHIADTHFSDHLYWCEQCDVQFSSSSELYLHFQEHSCDEQYLCQFCEHETNDPEDLHSHVVNEHACKLIELSDKYNNGEHGQYSLLSKITFDKCKNFFVCQVCGFRSRLHTNVNRHVAIEHTKIFPHVCDDCGKGFSSMLEYCKHLNSHLSEGIYLCQYCEYSTGQIEDLKIHLDFKHSADLPHKCSDCLMRFGNERELISHLPVHETT
B10: ZNF821, O75541 (protein)
chain: MSRRKQTNPNKVHWDQVFAGLEEQARQAMMKTDFPGDLGSQRQAIQQLRDQDSSSSDSEGDEEETTQDEVSSHTSEEDGGVVKVEKELENTEQPVGGNEVVEHEVTGNLNSDPLLELCQCPLCQLDCGSREQLIAHVYQHTAAVVSAKSYMCPVCGRALSSPGSLGRHLLIHSEDQRSNCAVCGARFTSHATFNSEKLPEVLNMESLPTVHNEGPSSAEGKDIAFSPPVYPAGILLVCNNCAAYRKLLEAQTPSVRKWALRRQNEPLEVRLQRLERERTAKKSRRDNETPEEREVRRMRDREAKRLQRMQETDEQRARRLQRDREAMRLKRANETPEKRQARLIREREAKRLKRRLEKMDMMLRAQFGQDPSAMAALAAEMNFFQLPVSGVELDSQLLGKMAFEEQNSSSLH
B11: SMAD2, Q15796 (protein)
chain: MSSILPFTPPVVKRLLGWKKSAGGSGGAGGGEQNGQEEKWCEKAVKSLVKKLKKTGRLDELEKAITTQNCNTKCVTIPSTCSEIWGLSTPNTIDQWDTTGLYSFSEQTRSLDGRLQVSHRKGLPHVIYCRLWRWPDLHSHHELKAIENCEYAFNLKKDEVCVNPYHYQRVETPVLPPVLVPRHTEILTELPPLDDYTHSIPENTNFPAGIEPQSNYIPETPPPGYISEDGETSDQQLNQSMDTGSPAELSPTTLSPVNHSLDLQPVTYSEPAFWCSIAYYELNQRVGETFHASQPSLTVDGFTDPSNSERFCLGLLSNVNRNATVEMTRRHIGRGVRLYYIGGEVFAECLSDSAIFVQSPNCNQRYGWHPATVCKIPPGCNLKIFNNQEFAALLAQSVNQGFEAVYQLTRMCTIRMSFVKGWGAEYRRQTVTSTPCWIELHLNGPLQWLDKVLTQMGSPSVRCSSMS
B12: GLIS1, Q8NBF1 (protein)
chain: MAEARTSLSAHCRGPLATGLHPDLDLPGRSLATPAPSCYLLGSEPSSGLGLQPETHLPEGSLKRCCVLGLPPTSPASSSPCASSDVTSIIRSSQTSLVTCVNGLRSPPLTGDLGGPSKRARPGPASTDSHEGSLQLEACRKASFLKQEPADEFSELFGPHQQGLPPPYPLSQLPPGPSLGGLGLGLAGRVVAGRQACRWVDCCAAYEQQEELVRHIEKSHIDQRKGEDFTCFWAGCVRRYKPFNARYKLLIHMRVHSGEKPNKCMFEGCSKAFSRLENLKIHLRSHTGEKPYLCQHPGCQKAFSNSSDRAKHQRTHLDTKPYACQIPGCSKRYTDPSSLRKHVKAHSAKEQQVRKKLHAGPDTEADVLTECLVLQQLHTSTQLAASDGKGGCGLGQELLPGVYPGSITPHNGLASGLLPPAHDVPSRHHPLDATTSSHHHLSPLPMAESTRDGLGPGLLSPIVSPLKGLGPPPLPPSSQSHSPGGQPFPTLPSKPSYPPFQSPPPPPLPSPQGYQGSFHSIQSCFPYGDCYRMAEPAAGGDGLVGETHGFNPLRPNGYHSLSTPLPATGYEALAEASCPTALPQQPSEDVVSSGPEDCGFFPNGAFDHCLGHIPSIYTDT

Target: nucleoprotein N of Crimean-Congo hemorrhagic fever virus
Assay: AlphaScreen luminescence signal relative to Venus negative control (fold); higher = stronger binding to CCHFV N
Protocol: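 AlphaScreen binding of cell-free made, FLAG-GST-tagged human transcription factors and regulators (crude translation products) to biotinylated N protein; signal as fold of the FLAG-GST-Venus control. One pass.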

Row | Binder | AlphaScreen luminescence signal
1 | B1 | 3.77
2 | B2 | 2.05
3 | B3 | 2.05
4 | B4 | 2.28
5 | B5 | 1.95
6 | B6 | 1.16
7 | B7 | 1.81
8 | B8 | 1.4
9 | B9 | 2.28
10 | B10 | 1.12
11 | B11 | 1.72
12 | B12 | 2.51
